# In paper PMC6212790:
# The list shows a part of the results. At the low end of the ranking the order means little.
# Target: T1, GST-Rok (full length) (UniProt O34857)
# T1 sequence: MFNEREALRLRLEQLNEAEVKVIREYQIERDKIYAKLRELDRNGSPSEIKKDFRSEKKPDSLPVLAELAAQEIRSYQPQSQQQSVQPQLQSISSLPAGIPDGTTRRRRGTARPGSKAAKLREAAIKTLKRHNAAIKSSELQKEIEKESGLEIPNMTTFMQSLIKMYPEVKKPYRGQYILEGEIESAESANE
# Test: protein binding microarray;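 also: rank score from −0.5 (least bound) to 0.5 (best bound)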
# Settings: Rok is a gene silencer of Bacillus subtilis; high values mean tight binding; most listed sequences are background and not binding sites; double strand, one strand shown
row,Sequence,binding signal [E-score]
1,CCACAGAG,-0.232
2,CGAATCAA,-0.00317
3,CCAAGCCC,-0.288
4,GGTGACTA,-0.0635
5,GAACCAAC,-0.0463
6,GAGTGACA,-0.0604
7,AACTAACT,0.328
8,TAAAAGAA,-0.0248
9,ACTGCCTC,-0.217
10,ACTTTGAG,-0.13
11,AGGCCTAC,-0.126
12,GAACTCTA,-0.0227
13,AATCAGTA,0.282
14,AAGTACCA,0.2
15,CGAAGAGA,0.0981
16,AGTCCCAT,-0.144
17,AACATGGG,-0.0186
18,CGAGGCTA,-0.141
19,CCAGCGAA,-0.2
20,CCCAATAG,-0.0151
21,GCCTCCTA,-0.283
22,ACAGAAAA,0.024
23,GGGAGCAA,-0.0906
24,AGTGCAGG,-0.282
25,GGATAAGA,-0.0593

row,Sequence,binding signal [E-score]
1,CACCTGCA,-0.143
2,AAGTCGTA,0.03
3,CCAGTCAG,-0.208
4,CATAAGGC,-0.0956
5,ACGCCCAC,-0.215
6,ATGTGACA,0.195
7,AACGTCCT,-0.153
8,GCAACCCC,-0.403
9,CCCGATGC,-0.215
10,AATATTGA,0.287
11,GATCATAA,0.101
12,GATAGTAA,0.406
13,GGCGAAAA,0.071
14,TCATGACA,0.0176
15,AGCACTCA,0.019
16,AAGGGTAT,-0.164
17,ATGCATTA,0.241
18,CGCGATAC,0.101
19,CTGCCTCA,-0.111
20,CAAGCCGC,-0.199
21,GGCAGAAC,-0.0215
22,CGGGTAGC,-0.16
23,ACGCAGCT,-0.119
24,CTATAACA,0.202
25,AGGACCAT,-0.0261

row,Sequence,binding signal [E-score]
1,ACAGATCC,-0.132
2,CGTGGGTC,-0.216
3,CACAGCAA,0.168
4,AGACTTTG,-0.0584
5,CTGTGACC,-0.016
6,GAATCGAA,-0.0491
7,ATCAGGCA,0.000587
8,AAATATCG,0.316
9,CCATGTAG,0.271
10,ACTACAGA,0.218
11,ATGCACCC,-0.0917
12,GAATCATA,0.0306
13,TATCGAAA,0.13
14,ATACAGAG,0.0796
15,CTTAGCAA,0.0585
16,AAGGTTCC,-0.376
17,AGCGAGCT,0.0111
18,GCACCTCA,-0.185
19,GCGGGGCA,-0.272
20,AGTGACGG,-0.109
21,GATAGGGA,-0.0361
22,ATGTAGTC,0.162
23,CCCAGACG,-0.218
24,AACCTCTC,-0.197
25,CATCTACC,0.291

row,Sequence,binding signal [E-score]
1,TACTGCCA,0.0459
2,CCAAGGCA,-0.247
3,ACTGAAAC,-0.223
4,CTCCTCGC,-0.255
5,ACGCTTTA,0.202
6,ATAGGGAG,-0.172
7,CTTCAACC,-0.116
8,TCCGACCA,-0.0461
9,CCTCGGTA,0.0273
10,AGAGTTAC,0.152
11,ACTAATGA,0.13
12,CAATGCGG,-0.0502
13,GCCCATAA,-0.0817
14,CCACAGGG,-0.383
15,CAAAAAGG,-0.0977
16,AAAGGAAC,-0.216
17,AATGATAG,0.333
18,ACCGCTAT,0.0622
19,ACTCAGAT,0.2
20,ACGTTCGG,-0.0329
21,ACGGTACG,-0.0886
22,CGCCTGAA,-0.276
23,ATAAGCCG,-0.00629
24,AACCGTAT,0.179
25,TAGTAGGA,0.209

row,Sequence,binding signal [E-score]
1,GCGAAGAA,0.128
2,CAATAGGG,-0.115
3,AGCGTATA,0.189
4,AATGGTAC,0.314
5,GGAAACTA,0.362
6,CGAGCCCC,-0.303
7,AGTTATCG,0.248
8,CGCACCGC,-0.388
9,GTGTTAAC,0.0282
10,AAATGTGA,0.21
11,TATTGGAA,0.0716
12,AAGAACCG,-0.133
13,GCTTTGAC,0.0394
14,AGGCTTTG,-0.21
15,CACCGAGA,-0.0238
16,GGCGTACA,-0.0118
17,CCCAAGCA,-0.265
18,AGAACCCA,0.00331
19,ACCGGCTG,-0.211
20,GCTCCGTA,-0.00531
21,TAACCAGA,-0.105
22,CTCCCGAC,-0.0195
23,CATGCTAG,0.192
24,ACCGTCGT,0.0566
25,CACAGCTA,0.135

row,Sequence,binding signal [E-score]
1,ATTAGAGG,-0.215
2,AACCACCA,-0.169
3,ATCCTCTC,-0.226
4,GCCAATGA,-0.116
5,AACCATAT,0.192
6,ACACGGCT,-0.125
7,CTGCGACC,-0.12
8,CGCCGGTA,-0.147
9,AGGTCGTA,0.0742
10,CCTGGGTC,-0.361
11,CAGGCATG,-0.176
12,AGTTTCGA,0.262
13,CCGTACTA,0.243
14,ATCATCCC,-0.203
15,CCAGATCA,-0.0971
16,AAAGAGGG,-0.308
17,CCGAAACC,0.00426
18,ATGACTTC,0.0698
19,ACTGTTCA,0.0465
20,ATGCGGTG,-0.0511
21,AAACTGAG,-0.11
22,ACCGCACA,-0.0784
23,CGAAACAA,0.09
24,AACGTGCG,-0.127
25,CATTAGAA,0.108

row,Sequence,binding signal [E-score]
1,CGGTAACG,-0.0352
2,TGACGGAA,-0.0186
3,TAACCTTA,0.0661
4,GGGGGTTA,-0.341
5,ATCAGTTA,0.208
6,ACGATGCA,0.0564
7,AAGTATGA,0.211
8,CCCATGAC,-0.0591
9,AGCGCTGA,-0.254
10,ATCGGGCA,-0.0463
11,GAATTCCC,-0.0489
12,GGTGGGTA,0.112
13,ACAATAAC,0.214
14,GGTGACAC,0.0136
15,AGACCTGC,-0.165
16,TCTCCTAA,-0.0327
17,GACCACAA,-0.0748
18,CTCATGGC,-0.151
19,AATCGGTC,-0.0689
20,AAGCATAC,0.08
21,ACCACCCA,-0.000827
22,ACGTAGAG,-0.0516
